Source: article PMC4336329 (PLoS ONE, 2015)
Out of some 310,000 compounds screened, about 2,200 (0.71%) showed an effect of 50% or more. Effects have a minus sign here. The list shows a part of the results.

Biological target: human ether-à-go-go-related gene (hERG) potassium channel (human, UniProt Q12809)
Assay: primary screen, population patch clamp on CHO cells stably expressing hERG

human ether-à-go-go-related gene (hERG) potassium channel, sequence (Q12809 whole entry, looked up): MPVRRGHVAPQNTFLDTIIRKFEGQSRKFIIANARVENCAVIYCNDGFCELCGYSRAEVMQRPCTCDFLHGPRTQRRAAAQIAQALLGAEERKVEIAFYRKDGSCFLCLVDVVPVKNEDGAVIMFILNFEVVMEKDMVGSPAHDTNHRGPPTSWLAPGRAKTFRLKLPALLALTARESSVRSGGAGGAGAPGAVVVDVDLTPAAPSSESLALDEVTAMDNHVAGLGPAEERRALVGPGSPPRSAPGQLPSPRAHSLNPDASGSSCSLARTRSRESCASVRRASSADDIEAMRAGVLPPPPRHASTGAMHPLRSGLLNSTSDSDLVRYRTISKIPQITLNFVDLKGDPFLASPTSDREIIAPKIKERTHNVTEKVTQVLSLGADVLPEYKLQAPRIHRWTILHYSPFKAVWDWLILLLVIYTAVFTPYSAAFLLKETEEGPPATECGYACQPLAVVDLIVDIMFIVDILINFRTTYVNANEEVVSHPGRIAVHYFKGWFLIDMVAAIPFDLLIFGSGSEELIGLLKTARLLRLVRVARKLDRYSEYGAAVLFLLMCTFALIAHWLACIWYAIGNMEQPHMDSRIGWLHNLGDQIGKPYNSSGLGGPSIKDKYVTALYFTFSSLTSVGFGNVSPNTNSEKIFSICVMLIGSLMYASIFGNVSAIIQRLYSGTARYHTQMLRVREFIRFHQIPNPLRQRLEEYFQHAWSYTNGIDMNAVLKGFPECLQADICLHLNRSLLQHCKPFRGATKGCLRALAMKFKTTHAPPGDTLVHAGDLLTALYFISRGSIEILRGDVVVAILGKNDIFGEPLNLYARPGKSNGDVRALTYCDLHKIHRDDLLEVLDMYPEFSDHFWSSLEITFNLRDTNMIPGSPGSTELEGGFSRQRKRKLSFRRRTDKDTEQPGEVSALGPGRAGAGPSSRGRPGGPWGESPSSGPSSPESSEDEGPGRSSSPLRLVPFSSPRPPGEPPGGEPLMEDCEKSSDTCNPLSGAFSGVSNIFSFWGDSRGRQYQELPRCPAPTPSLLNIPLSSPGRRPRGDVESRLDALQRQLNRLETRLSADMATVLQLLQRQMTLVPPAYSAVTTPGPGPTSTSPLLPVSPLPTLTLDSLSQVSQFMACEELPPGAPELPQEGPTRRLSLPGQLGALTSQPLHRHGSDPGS

Compound | hERG current change (%, negative = inhibition) at 1uM [%]
O=C(Nc1ccc(Cl)cn1)c1ccc(COCC(F)(F)C(F)F)o1 | -7.64
CC(=O)Nc1ccnn1C1CCN(C(=O)c2cccc(C)c2C)CC1 | 14.1
Cc1ccc(C(=O)CC(=O)c2cccc(F)c2)c(O)c1 | 1.53
COc1cc(S(=O)(=O)N2CCCC2)c(C)cc1C | 16.5
O=S(=O)(c1ccc(Br)s1)N1CCN(Cc2ccc3c(c2)OCO3)CC1 | 14.6
COC(=O)c1sc2nc(C)c([N+](=O)[O-])c(C)c2c1N | 6.8
CN(C(=O)c1ccc(Br)cc1)C1CCS(=O)(=O)C1 (stereo not drawn) | 10.2
COc1ccccc1NC(=O)c1cc2c(CO)cnc(C)c2oc1=Nc1ccc(OC)c(OC)c1 | 10.7
CCN1CCN(c2ccccc2NC(=O)C(C)Oc2ccc(C(C)=O)cc2)CC1 (stereo not drawn) | -17.5
COC(=O)COc1coc(CN2CCN(c3cccc(Cl)c3)CC2)cc1=O | 9.34
Br.COCC(C)NCc1cccc(C)c1 (stereo not drawn) | 14.9
CCOc1ccc(-c2nnc3n2N=C(c2ccc(OC)cc2)CS3)cc1 | 10.8
c1ccc(-c2cn(C[C@H]3CC[C@@H]([C@@H]4CC[C@H](Cn5cc(-c6ccccc6)nn5)O4)O3)nn2)cc1 | -3.6
COc1ccc(OC)c(NC(=O)C(=O)NNC(=O)C23CC4CC(CC(C4)C2)C3)c1 | 13.5
COc1cc(NC(=O)c2cccc(Cl)c2)ccc1NC(=O)c1cccs1 | 5.97
CCCCN(C)CCCNC(=O)C1(O)c2ccccc2NC(=O)N1c1ccc(Cl)cc1 (stereo not drawn) | 19.4
CC(=O)Oc1ccc(C(=O)Cc2ccccn2)c(O)c1 | 7.84
Cc1ccc(NC(=O)CSc2nnc(NC(=O)c3ccco3)s2)cc1 | -1.18
Cc1ccc(CONS(=O)(=O)c2cc(C)ccc2C)cc1 | 13.7
O=C(CN1C2CCC1CC(O)(c1cccnc1)C2)Nc1ccc2c(c1)OCO2 (stereo not drawn) | -19.9
CC1CCCC(NC(=O)COC(=O)c2cc(S(=O)(=O)N3CCCCC3)ccc2N2CCOCC2)C1C (stereo not drawn) | -7.1
CN(C)Cc1ccccc1C1(O)c2ccccc2CSc2ccccc21.Cl (stereo not drawn) | 6.62
COc1ccc(Cl)cc1NC(=O)CCN1C(=O)C2C3CCC(C3)C2C1=O (stereo not drawn) | 6.94
O=C(CCCN1C(=O)C2CCCCN2C1=O)N1CCN(c2ccc([N+](=O)[O-])cc2)CC1 (stereo not drawn) | -78.5

Compound | hERG current change (%, negative = inhibition) at 1uM [%]
COC(c1ccccc1)c1nnc(CCC(=O)NCCc2ccc(Cl)cc2)o1 (stereo not drawn) | 12.2
O=C1CN(O)C(c2ccccc2Cl)=c2cc(Br)ccc2=N1 | 11.4
Cc1ccc(C2CCN(C(=S)Nc3cccc(C)c3)C2)cc1 (stereo not drawn) | 2.01
CCN(c1ccccc1)S(=O)(=O)c1cccc(C(=O)NCc2ccccn2)c1 | 12.8
O=C(Cc1nnc(NC(=O)c2ccccc2)s1)N/N=C/c1ccco1 | 12.9
CCN(CC)S(=O)(=O)c1ccc2[nH]cc(C(=O)NCCc3ccccc3)c(=O)c2c1 | 2.57
CC(=O)Nc1ccccc1Oc1ccccc1 | 9.6
Cc1ccc(C(=O)NC(NCC2CCCO2)C(Cl)(Cl)Cl)cc1 (stereo not drawn) | 9.95
O=C(c1ccc(CNS(=O)(=O)c2cccc(Cl)c2)cc1)N1CCCCC1 | 13.9
CCN(CC)c1ccc(SS(=O)(=O)O)cc1 | 5.26
Cc1ccc(Cl)cc1NC(=O)CN1CCOCC1 | 12.2
Cc1cc(C)n2nc(C(=O)N/N=C/c3ccccc3C)nc2n1 | 8.83
CCOC(=O)C1(Cc2ccc(Cl)cc2)CCN(Cc2nccn2CC)CC1 | -57
CNc1nc(SC)n(C)c(=O)c1N=O | 7.17
CCOC(=O)c1ccc(S(=O)(=O)N2CCN(C)CC2)cc1 | 13.8
Cc1ccnc(NS(=O)(=O)c2ccc(N)cc2)n1 | 9.42
CCCn1c2ccccc2c2cnn(CC(=O)OC)c(=O)c21 | 11.8
COC(=O)c1cc(Cl)c(NC(=O)/C=C/c2ccc(OC)c(OC)c2)cc1OC | -8.21
COc1ccccc1N1CCN(c2ccc(-c3ccccc3)nn2)CC1 | 5.15
CNC(=O)Nc1ccc2nc(C)oc2c1 | 18.7
O=c1c2ccccc2nc(-c2ccoc2)n1-c1ccccc1Cl | 4.71
O=C(CSc1c[nH]c2ccccc12)NC1CCCC1 | 17
Nc1nonc1OCCN1CCN(c2ccc([N+](=O)[O-])c3cccnc23)CC1 | -28.6
COc1ccc(S(=O)(=O)N(C)CC(=O)N2CCC(C)CC2)cc1Cl | 9.71

Compound | hERG current change (%, negative = inhibition) at 1uM [%]
COc1ccc(N=Cc2c(O)ccc3ccccc23)cc1 | 12.5
O=C(Nc1ccc2nc[nH]c2c1)c1ccco1 | 1.77
COC(=O)c1nc[nH]c1C(=O)OC | 18.4
Cc1ccc(NC(=O)Cn2c(=O)n(Cc3ccco3)c(=N)c3c4c(sc32)COC(C)(C)C4)cc1 | 5.82
O=C(Cc1c(O)c2ccccc2oc1=O)c1ccc(F)cc1 | 0.324
Cc1ccc(-c2noc(-c3ccno3)n2)cc1 | 17.8
CCOc1ccc(S(=O)(=O)NC(Cc2cnc[nH]2)C(=O)O)cc1 (stereo not drawn) | 6.38
CCOc1ccc(S(=O)(=O)Nc2ccccc2SC)cc1 | 1.72
Cc1c2cnn(CC(=O)NC3CCCC3)c(=O)c2c(C)n1Cc1ccccc1 | 12.4
CN1CCN(c2ccc(C(CC(N)=O)NC(=O)Cc3ccc(Br)cc3)cc2[N+](=O)[O-])CC1 (stereo not drawn) | 6.05
CCOc1ccc(Br)cc1C(=S)N1CCCC1 | 14.5
COc1ccc([C@H]2CC(=O)C=C(c3ccc(-c4ccccc4)c(F)c3)C2)cc1 | 11.4
CCN(CC)CCN/N=C(\C)c1c(O)[nH]c(=O)[nH]c1=O | 11.1
CCOC(=O)/C(C#N)=C/c1cc2ccccc2nc1N1CCOCC1 | -0.385
CCC1(C)SC(NC(C)=O)=NN1C(C)=O (stereo not drawn) | 5.87
CC(C)n1cc(/C=N/Nc2ccc(C(=O)O)cc2)c2ccccc21 | 7.92
COC(=O)/C(C#N)=C\c1c(OC)[nH]c2ccccc12 | 9.2
O=C(CN(C(=O)CCC(=O)Nc1nccs1)c1cccc(F)c1)NCc1ccc(F)cc1 | 7.69
O=C(N/N=C/c1ccc(N2CCOCC2)cc1)c1ccccn1 | 6.8
CCCCNC(=S)Nc1ccc(F)cc1 | 8.45
CCCCNc1nc(CC(C)=O)ns1 | 9.33
COc1ccc(CCNC(=O)CSc2nnc3ccc(-c4cccnc4)nn23)cc1 | 4.77
COc1ccc(NC(=S)Nc2ncccc2C)c(OC)c1 | 14
O/N=C1\CCCc2ccc3ccccc3c21 | 12.3

Compound | hERG current change (%, negative = inhibition) at 1uM [%]
CC1CCc2sc3nc(NCc4ccco4)n4ncnc4c3c2C1 (stereo not drawn) | -1.55
CCc1ccc(Nc2n[n+](C)c(-c3ccncc3)s2)cc1.[Cl-] | 7.2
Cc1ccc(NC2CCCN(C(=O)c3cccc4nccnc34)C2)cc1C (stereo not drawn) | 19.7
CCCCOC(=O)c1nc(Cl)c(Cl)c(N)c1Cl | 12
Cc1ccc(N2C(=O)CC(Sc3ccccc3C(=O)O)C2=O)c([N+](=O)[O-])c1 (stereo not drawn) | 8.47
CC(C)c1cccc(C(C)C)c1NC(=O)COC(=O)C1CCC1 | 10.4
COCCN=C1Sc2nc3ccc(C)cc3cc2CN1Cc1ccco1 | -7.51
CCc1ccc(NC(=O)CC2C(=O)Nc3c2c(=O)n(C)c(=O)n3C)cc1 (stereo not drawn) | 7.15
Cc1cc(C)cc(OCC(=O)OCC(=O)c2c(N)n(C)c(=O)n(C)c2=O)c1 | 0.87
Cc1cc(C(=O)COc2cccc([N+](=O)[O-])c2)c(C)n1C1CC1 | 1.64
CC(C)n1c(=S)[nH]c2ccccc2c1=O | 10.7
O=C(Nc1cccc(Cl)c1)OCc1ccccn1 | 4.71
O=C(COc1ccc2c3c(c(=O)oc2c1)CCC3)NCC(O)c1ccccc1 (stereo not drawn) | 16.1
Cc1cc(C)nc(OC(C(=O)O)C(OCCc2ccccc2)(c2ccc(F)cc2)c2ccc(F)cc2)n1 (stereo not drawn) | 14.1
CCCCCCC(C)n1[nH]c(=O)cc1N (stereo not drawn) | 10.4
Cc1cc(C)nc(N(C#N)CN2C(=O)c3ccccc3S2(=O)=O)n1 | 4.95
Cc1ccc(-c2cccc(NC(=O)C3C4C=CC(C4)C3C(=O)O)c2)o1 (stereo not drawn) | -0.712
CN(Cc1nccn1C)C(=O)CC1C(=O)NCCN1Cc1cccc(Oc2ccccc2)c1 (stereo not drawn) | -3.54
COc1ccc(NC(=O)CCCn2c(=O)[nH]c3ccccc3c2=O)cc1 | 3.34
O=C(NNS(=O)(=O)c1ccc(Cl)cc1)C1CCN(Cc2ccccc2)CC1 | 11.4
O=Cc1cn(Cc2c(F)cccc2Cl)nc1-c1ccccc1 | 12.8
